# Reference: US9670264B2, “Water soluble G-protein coupled receptor” (The Trustees of The University of Pennsylvania, priority 2013, dated 2017)
# B1: BAD4: engineered more water soluble human β2 adrenergic receptor (protein)
# chain: MAHHHHHHVMGQPGNGSAFLLAPNGSHAPDHDVTQQRDEEWVKGTGRQMSEIVKKIVEGNKLVITAIQKFERLQTVTNYFITSLAEADLKMGEAVVPYGAAHILKKMWTYGNRWCEYWTSIDVLTVTASIETLDVIAEDRYKAITSPFKYQSELTKNKAREEIKKVWERSGKTSFDPIQKHKYRATHQEAINCYANETCCDFFTNQDYAKKSSKQSFYEPLQKMKDVYSRVEQEAKRQLQKIDKSEGRFHVQNLSQVEQDGRTGHGLRRSSKESLKEHKALKTLGEIMGTFTRQWDPFFKVNEEHVKQDNKIRKEEYIKLNWEGYKNSGENPKIYERSPDFRIAFQELRSLRRSSLKAYGNGYSSNGNTGEQSGYHVEQEKENKLLAEDLPGTEDFVGHQGTVPSDNIDSPGRNASTNDSLL
# Experiment: Secondary structure by circular dichroism (CD)
# Format: physicochemical
# Conditions: protein isolated from E. coli lysate
# Excerpt: The CD spectra indicated predominantly helical structures with a helical secondary structure content of ˜48% (estimations based on the molar ellipticity over the range 205 to 260 nm). The comparison of the helical content with that of the native human MUR expressed in yeast system in the presence of high concentration of detergent (0.1% SDS) is presented in Table 1.
molecule,measurement,value
B1,helical structural content by CD spectroscopy (in words),high alpha-helical content
